# Measured values as given in PubChem BioAssay (Tox21).
# Several values for one entry are separate records, joined by “and”; a condition that tells them apart may be missing. Equal values may be shown once. Inconclusive results, whose numbers are uncertain, are shown with a selection of clear calls. For part of these data: Potencies beside an inconclusive call are fits to weak or partial responses and may not hold up. Activity calls are given as the source filed them. Unless noted, calls come from the whole dose curve; as a rule, active = well fitted curve in the direction sought with a large enough effect in the repeat runs; inconclusive = weak or mixed curves; inactive = no such curve, though single readings can be large; an effect the other way counts as inactive or inconclusive.
# Tests used:
# [1] = qHTS assay to identify aromatase inhibitors - cell viability counter screen (AID 743084); details: MCF-7 aro ERE viability, CellTiter-Fluor, 24 h; activity change, negative = cytotoxicity: at 70.3 µM (top of the series) unless noted;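 note: cells stimulated with testosterone during compound exposure; % is set by controls: 0 for no effect and ±100 for the full control effect; nearly all actives have a fitted effect of over 55% in size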
# [2] = qHTS assay for small molecule activators of the heat shock response signaling pathway (AID 743210; active = well fitted activation curve with a large enough effect in the signal ratio in the repeat runs, with a control signal flat, not every such curve was filed as active; inconclusive = weak or mixed curves; the % refers to the signal ratio;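 note: HeLa cells with beta-lactamase reporter driven by heat shock elements; % is set by controls: 0 for no effect and ±100 for the full control effect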); details: HeLa HSE-bla reporter, beta-lactamase ratio, 5 h; activation: at 62.6 µM (top of the series) unless noted
# Summary of the method: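 In HSE-bla HeLa cells, 5 h compound incubation (37 C) precedes addition of LiveBLAzer B/G substrate; after 2.5 h at room temperature, fluorescence intensity indicates reporter induction.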
# [3] = qHTS assay to identify small molecule agonists of the farnesoid-X-receptor (FXR) signaling pathway - cell viability counter screen (AID 743218); details: FXR-bla HEK293T viability, CellTiter-Glo luminescence, 16 h; viability change, negative = cytotoxic: at 62.6 µM (top of the series) unless noted; note: nearly all actives have a fitted effect of over 45% in size; note: potency is the fitted concentration of half-maximal effect
# Summary of the method: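 FXR-UAS-bla HEK 293T cells exposed to compounds for 16 h at 37C. Cytotoxicity read in the same wells by CellTiter-Glo luminescence after 30 min at room temperature, following the beta-lactamase FRET read.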
# [4] = qHTS assay to identify small molecule antagonists of the vitamin D receptor (VDR) signaling pathway - cell viability counter screen (AID 743225); details: VDR-bla HEK293T viability, CellTiter-Glo luminescence, 16 h; viability change, negative = cytotoxic: at 61 µM (top of the series) unless noted; note: nearly all actives have a fitted effect of over 50% in size; note: potency is the fitted concentration of half-maximal effect; for viability change, negative = cytotoxic: % is set by controls: 0 for no effect and ±100 for the full control effect
# Summary of the method: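 HEK293T VDR-bla; cpd + 1a,25-(OH)2D3 3 nM final, 16 h 37C/5% CO2; B/G FRET substrate 2 h RT; then CellTiter-Glo 30 min RT, luminescence.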
# [5] = target: Thyrotropin receptor (Homo sapiens) (UniProt P16473); assay: qHTS assay to identify small molecule agonists of the thyroid stimulating hormone receptor (TSHR) signaling pathway (AID 1224843; calls by dose curve; note: nearly all actives have a fitted effect of over 45% in size; note: potency is the fitted concentration of half-maximal effect); details: TSHR-HEK293 cells, cAMP HTRF, agonist mode, 30 min
# UniProt P16473, sequence (P16473 whole entry, looked up): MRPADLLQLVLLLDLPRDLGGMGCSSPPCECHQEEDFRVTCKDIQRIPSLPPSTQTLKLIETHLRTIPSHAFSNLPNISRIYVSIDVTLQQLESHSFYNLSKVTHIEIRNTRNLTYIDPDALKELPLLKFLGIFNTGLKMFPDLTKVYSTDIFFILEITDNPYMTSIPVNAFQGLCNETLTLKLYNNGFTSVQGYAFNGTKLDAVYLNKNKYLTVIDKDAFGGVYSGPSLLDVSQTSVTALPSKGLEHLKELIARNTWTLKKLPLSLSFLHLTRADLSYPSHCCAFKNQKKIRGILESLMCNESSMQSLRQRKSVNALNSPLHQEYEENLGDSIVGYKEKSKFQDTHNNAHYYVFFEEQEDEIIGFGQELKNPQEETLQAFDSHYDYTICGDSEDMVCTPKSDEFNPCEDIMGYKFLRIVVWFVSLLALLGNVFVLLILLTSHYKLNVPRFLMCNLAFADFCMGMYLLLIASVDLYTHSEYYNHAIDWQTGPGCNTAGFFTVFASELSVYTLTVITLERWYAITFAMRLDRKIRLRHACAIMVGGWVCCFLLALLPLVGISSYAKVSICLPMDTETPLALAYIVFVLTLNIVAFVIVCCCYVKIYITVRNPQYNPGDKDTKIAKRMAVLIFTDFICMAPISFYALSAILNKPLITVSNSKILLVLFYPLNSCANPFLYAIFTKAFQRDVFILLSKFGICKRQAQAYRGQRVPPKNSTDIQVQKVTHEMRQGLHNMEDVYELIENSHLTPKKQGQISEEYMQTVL
# Summary of the method: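 HEK293 cells stably bearing the thyrotropin receptor were plated at 800 cells/well and challenged with compound (30 min, RT). Accumulated cAMP was quantified via cAMP-d2 competing for cryptate-tagged antibody.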
# [6] = qHTS RealTime-Glo MT Cell Viability Assay in HEK293 cells - 32 hour (AID 1224868); note: nearly all actives have a fitted effect of over 50% in size; note: potency is the fitted concentration of half-maximal effect
# Summary of the method: (§1)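 Cells + reagent dispensed (600 cells/well, HEK293) → 5 h at 37 C/5% CO2 → 23 nL compound in DMSO pinned → 40 h at 37 C → luminescence read at 0, 8, 16, 24, 32, 40 h.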
# [7] = qHTS RealTime-Glo MT Cell Viability Assay in HEK293 cells - 24 hour (AID 1224886); note: potency is the fitted concentration of half-maximal effect; nearly all actives have a fitted effect of over 50% in size
# Summary of the method: as §1
# [8] = target: Progesterone receptor (Homo sapiens) (UniProt P06401); assay: qHTS assay to identify small molecule agonists of the progesterone receptor (PR) signaling pathway (AID 1346784; calls by dose curve; note: % is set by controls: 0 for no effect and ±100 for the full control effect; nearly all actives have a fitted effect of over 30% in size); details: PR-UAS-bla HEK293T, beta-lactamase FRET ratio, 16 h; activation: at 92.4 µM (top of the series) unless noted
# UniProt P06401, sequence (P06401 whole entry, looked up): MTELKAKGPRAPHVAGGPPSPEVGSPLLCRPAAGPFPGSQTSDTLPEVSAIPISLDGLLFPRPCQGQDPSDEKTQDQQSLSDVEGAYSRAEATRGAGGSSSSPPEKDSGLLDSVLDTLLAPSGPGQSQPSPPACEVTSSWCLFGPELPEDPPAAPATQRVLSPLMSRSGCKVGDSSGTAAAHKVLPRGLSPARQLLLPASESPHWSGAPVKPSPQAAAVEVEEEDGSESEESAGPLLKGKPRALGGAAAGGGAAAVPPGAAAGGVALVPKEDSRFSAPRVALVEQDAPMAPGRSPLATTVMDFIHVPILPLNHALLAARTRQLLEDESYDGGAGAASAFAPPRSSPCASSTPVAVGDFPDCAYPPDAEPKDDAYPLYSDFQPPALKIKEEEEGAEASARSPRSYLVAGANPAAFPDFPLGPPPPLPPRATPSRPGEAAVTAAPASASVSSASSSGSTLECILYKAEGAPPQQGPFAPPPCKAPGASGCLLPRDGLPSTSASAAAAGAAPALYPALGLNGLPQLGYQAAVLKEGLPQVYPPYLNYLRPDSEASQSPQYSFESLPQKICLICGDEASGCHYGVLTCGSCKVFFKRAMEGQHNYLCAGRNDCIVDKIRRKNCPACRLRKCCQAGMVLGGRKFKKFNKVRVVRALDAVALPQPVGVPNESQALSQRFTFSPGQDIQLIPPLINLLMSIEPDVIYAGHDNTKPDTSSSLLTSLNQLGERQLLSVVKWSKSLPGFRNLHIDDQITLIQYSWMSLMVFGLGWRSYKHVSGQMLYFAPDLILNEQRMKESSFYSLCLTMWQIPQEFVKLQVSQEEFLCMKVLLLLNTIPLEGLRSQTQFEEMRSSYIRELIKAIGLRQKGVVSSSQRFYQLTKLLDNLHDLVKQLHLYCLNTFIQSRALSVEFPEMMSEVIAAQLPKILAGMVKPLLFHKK
# Summary of the method: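 Cells (PR-UAS-bla HEK 293T, GripTite) were plated in assay medium containing 2% charcoal-stripped FBS and incubated 6 hr. Test compounds in DMSO were added for 16 hr at 37C. FRET substrate was then loaded for 2 hr at room temperature before fluorescence reading.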
# [9] = target: Nuclear receptor subfamily 1 group I member 2 (Homo sapiens) (UniProt O75469); assay: Human pregnane X receptor (PXR) small molecule agonists, qHTS assay (AID 1346982); note: nearly all actives have a fitted effect of over 35% in size; note: potency is the fitted concentration of half-maximal effect
# UniProt O75469, sequence (O75469 whole entry, looked up): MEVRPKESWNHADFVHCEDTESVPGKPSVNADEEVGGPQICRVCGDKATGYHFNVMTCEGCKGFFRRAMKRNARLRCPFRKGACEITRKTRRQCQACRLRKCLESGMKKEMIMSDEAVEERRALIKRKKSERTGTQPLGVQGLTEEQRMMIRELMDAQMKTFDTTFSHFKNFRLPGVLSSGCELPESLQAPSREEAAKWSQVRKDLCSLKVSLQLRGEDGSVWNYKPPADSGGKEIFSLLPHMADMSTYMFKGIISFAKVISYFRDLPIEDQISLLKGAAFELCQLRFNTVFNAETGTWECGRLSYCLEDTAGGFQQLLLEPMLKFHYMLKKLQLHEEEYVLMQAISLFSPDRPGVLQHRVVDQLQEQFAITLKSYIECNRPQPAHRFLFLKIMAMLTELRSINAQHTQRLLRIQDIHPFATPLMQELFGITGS
# Summary of the method: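 PXR-Luc HepG2 reporter cells (CYP3A4-driven luciferase) in 5% charcoal-stripped FBS medium, plated 5 h before compound addition, then treated 24 h at 37C. Luciferase read by ONE-Glo luminescence after 30 min at room temperature.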
# [10] = qHTS assay for identifying genotoxic compounds that show differential cytotoxicity against isogenic chicken DT40 cell lines with known DNA damage response pathways - Rad54/Ku70 mutant cell line (AID 743015); details: DT40 Rad54/Ku70 mutant viability, CellTiter-Glo, 40 h; activity change, negative = cytotoxicity: at 66.8 µM (top of the series) unless noted; note: nearly all actives have a fitted effect of over 60% in size; note: potency is the fitted concentration of half-maximal effect
# [11] = target: Peroxisome proliferator-activated receptor delta (Homo sapiens) (UniProt Q03181); assay: qHTS assay to identify small molecule antagonists of the peroxisome proliferator-activated receptor delta (PPARd) signaling pathway (AID 743215; active = well fitted inhibition curve with a large enough effect in the signal ratio in the repeat runs, not every such curve was filed as active; inconclusive = weak or mixed curves, or effect the other way; inactive = no such curve, though single readings can be large or run the other way; the % refers to the signal ratio;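 note: cells stimulated with agonist L165041 at 300 nM final during compound exposure; % is set by controls: 0 for no effect and ±100 for the full control effect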); details: HEK293H PPARd-UAS-bla, beta-lactamase FRET ratio, antagonist, 17 h; ratio activity, negative = inhibition: at 62 µM (top of the series) unless noted
# UniProt Q03181, sequence (Q03181 whole entry, looked up): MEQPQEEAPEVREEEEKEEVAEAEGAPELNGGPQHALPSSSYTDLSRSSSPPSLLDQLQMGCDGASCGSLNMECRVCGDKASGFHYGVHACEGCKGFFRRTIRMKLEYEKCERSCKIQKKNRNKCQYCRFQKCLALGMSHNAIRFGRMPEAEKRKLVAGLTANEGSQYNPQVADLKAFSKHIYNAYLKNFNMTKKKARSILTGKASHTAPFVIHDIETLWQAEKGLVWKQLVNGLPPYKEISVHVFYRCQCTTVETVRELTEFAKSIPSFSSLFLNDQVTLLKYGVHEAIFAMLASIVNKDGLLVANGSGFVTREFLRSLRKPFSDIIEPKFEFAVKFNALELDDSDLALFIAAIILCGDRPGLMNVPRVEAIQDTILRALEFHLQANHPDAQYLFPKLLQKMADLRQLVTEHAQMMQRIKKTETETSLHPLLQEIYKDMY
# Summary of the method: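 PPARd-bla HEK293H cells (UAS-bla reporter) preincubated 5 h, then given compound plus 300 nM final L165041 agonist for 17 h at 37 C. Beta-lactamase activity read by LiveBLAzer B/G FRET substrate fluorescence after 2 h at room temperature.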
# [12] = target: Luciferin 4-monooxygenase (Photinus pyralis) (UniProt P08659); assay: qHTS assay to identify small molecule inhibitors of firefly luciferase (AID 1224835); note: nearly all actives have a fitted effect of over 25% in size; note: potency is the fitted concentration of half-maximal effect
# UniProt P08659, sequence (P08659 whole entry, looked up): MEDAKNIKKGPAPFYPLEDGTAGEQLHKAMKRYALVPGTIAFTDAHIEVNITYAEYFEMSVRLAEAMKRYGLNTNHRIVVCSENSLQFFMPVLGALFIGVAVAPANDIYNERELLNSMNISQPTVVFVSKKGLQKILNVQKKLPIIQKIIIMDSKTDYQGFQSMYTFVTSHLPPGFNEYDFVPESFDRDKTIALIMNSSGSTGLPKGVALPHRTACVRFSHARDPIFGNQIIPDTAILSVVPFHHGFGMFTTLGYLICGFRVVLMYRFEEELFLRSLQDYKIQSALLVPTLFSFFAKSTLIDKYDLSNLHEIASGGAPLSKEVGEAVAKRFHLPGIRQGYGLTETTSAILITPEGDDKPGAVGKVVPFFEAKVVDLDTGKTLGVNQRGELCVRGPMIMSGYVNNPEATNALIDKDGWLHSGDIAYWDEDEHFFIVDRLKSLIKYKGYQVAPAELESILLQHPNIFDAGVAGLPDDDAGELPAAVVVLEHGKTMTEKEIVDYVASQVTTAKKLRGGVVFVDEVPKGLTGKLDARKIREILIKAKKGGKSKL
# Summary of the method: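 Inhibition of purified Photinus luciferase is measured by luminescence. Substrate levels (D-luciferin, ATP) sit at their KM values. Each compound is tested in a concentration series.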
# [13] = qHTS assay to identify small molecule agonists of the estrogen receptor beta (ER-beta) signaling pathway - cell viability counter screen (AID 1259380); note: potency is the fitted concentration of half-maximal effect; nearly all actives have a fitted effect of over 30% in size
# Summary of the method: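 ER-beta-UAS-bla HEK293T cells in medium with 2% charcoal-stripped FBS, pre-incubated 6 hr, then treated 16 hr at 37C. Cytotoxicity read in the same wells by CellTiter-Glo luminescence after 30 min at room temperature.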
# [14] = qHTS assay to identify small molecule antagonists of the estrogen receptor alpha (ER-alpha) signaling pathway - cell viability counter screen (AID 743074; calls by dose curve;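 note: HEK293 cells carrying ER-alpha-UAS-bla reporter stimulated with 17beta-estradiol; nearly all actives have a fitted effect of over 45% in size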; note: potency is the fitted concentration of half-maximal effect)
# [15] = target: Estrogen receptor (Homo sapiens) (UniProt P03372); assay: qHTS assay to identify small molecule antagonists of the estrogen receptor alpha (ER-alpha) signaling pathway (AID 743069; active = well fitted curve in the direction sought with a large enough effect in the signal ratio in the repeat runs, not every such curve was filed as active; inconclusive = weak or mixed curves, or effect the other way; inactive = no such curve, though single readings can be large or run the other way; the % refers to the signal ratio; note: % is set by controls: 0 for no effect and ±100 for the full control effect); details: HEK293 ER-alpha-UAS-bla, beta-lactamase ratio, antagonist mode; activity, negative = inhibition: at 69.4 µM (top of the series) unless noted
# UniProt P03372, sequence (P03372 whole entry, looked up): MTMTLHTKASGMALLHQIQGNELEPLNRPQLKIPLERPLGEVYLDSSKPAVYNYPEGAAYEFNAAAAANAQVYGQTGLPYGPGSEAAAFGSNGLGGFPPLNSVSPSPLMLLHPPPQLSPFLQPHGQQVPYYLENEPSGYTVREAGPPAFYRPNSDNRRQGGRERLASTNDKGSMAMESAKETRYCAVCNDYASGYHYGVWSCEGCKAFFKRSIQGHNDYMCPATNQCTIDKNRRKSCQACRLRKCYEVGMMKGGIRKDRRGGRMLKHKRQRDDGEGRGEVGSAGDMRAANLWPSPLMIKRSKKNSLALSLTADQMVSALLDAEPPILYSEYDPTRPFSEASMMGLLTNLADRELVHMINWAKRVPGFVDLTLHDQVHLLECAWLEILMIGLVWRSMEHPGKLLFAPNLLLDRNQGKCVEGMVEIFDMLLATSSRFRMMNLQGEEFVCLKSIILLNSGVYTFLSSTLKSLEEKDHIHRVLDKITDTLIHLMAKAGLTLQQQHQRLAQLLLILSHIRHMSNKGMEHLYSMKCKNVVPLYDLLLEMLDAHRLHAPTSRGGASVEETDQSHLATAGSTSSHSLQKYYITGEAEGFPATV
# Summary of the method: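 Compound effects are measured against 17beta-estradiol stimulation in HEK293 cells with a UAS-controlled beta-lactamase reporter for ER-alpha. Exposure lasts 18 hr at 37C; LiveBLAzer B/G FRET substrate follows for 2 hr at room temperature.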
# [16] = qHTS assay to identify small molecule antagonists of the estrogen receptor alpha (ER-alpha) signaling pathway using the BG1 cell line (AID 743080; calls by dose curve;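 note: BG1 cells stimulated with 17beta-estradiol alongside compound; nearly all actives have a fitted effect of over 25% in size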; note: potency is the fitted concentration of half-maximal effect); details: BG1Luc4E2 ERE-luciferase antagonist mode, luminescence; activity change, negative = inhibition: at 70.3 µM (top of the series) unless noted
# Summary of the method: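 BG1Luc4E2, endogenous ER-alpha, 4xERE-luc; 5 d charcoal-stripped FBS, phenol red free; 24 h plating; cpd + 17beta-estradiol 21.5 h, 37 C/5% CO2; CellTiter-Fluor viability 30 min, then ONE-Glo luciferase 30 min RT.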
# [17] = Human pregnane X receptor (PXR) small molecule agonists, qHTS cell viability counter screen (AID 1346977); note: nearly all actives have a fitted effect of over 50% in size; note: potency is the fitted concentration of half-maximal effect
# Summary of the method: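 Cytotoxicity counter screen run in the same wells as the PXR luciferase assay, using PXR-Luc HepG2 cells in charcoal-stripped serum medium. Viability: CellTiter-Fluor fluorescence after 24hr compound treatment.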
# [18] = target: Estrogen receptor beta (Homo sapiens) (UniProt Q92731); assay: qHTS assay to identify small molecule agonists of the estrogen receptor beta (ER-beta) signaling pathway (AID 1259377; active = well fitted activation curve with a large enough effect in the signal ratio in the repeat runs, not every such curve was filed as active; inconclusive = weak or mixed curves, or effect the other way; the % refers to the signal ratio; note: potency is the fitted concentration of half-maximal effect); details: ER-beta-UAS-bla HEK293T, beta-lactamase FRET ratio, 16 h; activation: at 92.4 µM (top of the series) unless noted
# UniProt Q92731, sequence (Q92731 whole entry, looked up, the tested form may be a part): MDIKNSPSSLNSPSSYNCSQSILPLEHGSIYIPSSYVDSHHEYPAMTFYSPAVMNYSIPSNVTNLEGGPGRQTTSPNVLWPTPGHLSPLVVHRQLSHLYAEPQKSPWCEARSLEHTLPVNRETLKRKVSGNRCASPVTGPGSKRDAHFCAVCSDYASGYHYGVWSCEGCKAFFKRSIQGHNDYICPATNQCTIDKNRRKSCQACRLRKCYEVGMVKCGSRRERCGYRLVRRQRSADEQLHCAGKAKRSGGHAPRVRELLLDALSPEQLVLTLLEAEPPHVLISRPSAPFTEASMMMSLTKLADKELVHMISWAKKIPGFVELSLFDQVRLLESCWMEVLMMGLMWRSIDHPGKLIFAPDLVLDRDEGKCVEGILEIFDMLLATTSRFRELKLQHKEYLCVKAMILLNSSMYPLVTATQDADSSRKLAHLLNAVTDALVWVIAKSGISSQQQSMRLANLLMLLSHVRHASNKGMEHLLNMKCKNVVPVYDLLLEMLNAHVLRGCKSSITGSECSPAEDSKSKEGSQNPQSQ
# Summary of the method: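 Agonist mode cell assay in GripTite HEK293T cells expressing an ER-beta fusion that drives beta-lactamase from an Upstream Activator Sequence; 16 hr compound exposure at 37C, then 2 h LiveBLAzer B/G FRET substrate at room temperature, fluorescence read-out.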
# [19] = target: Aryl hydrocarbon receptor (Homo sapiens) (UniProt P35869); assay: qHTS assay to identify small molecule that activate the aryl hydrocarbon receptor (AhR) signaling pathway (AID 743085); note: potency is the fitted concentration of half-maximal effect; nearly all actives have a fitted effect of over 15% in size
# Summary of the method: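 Compounds were tested in HepG2 hepatocellular carcinoma cells harbouring a stably integrated luciferase gene under control of 20 DREs. Increased reporter signal after 24 h treatment at 37C was taken as AhR activation.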
# [20] = qHTS assay to identify small molecule antagonists of the peroxisome proliferator-activated receptor delta (PPARd) signaling pathway - cell viability counter screen (AID 743213); details: PPARd-bla HEK293H viability, CellTiter-Glo luminescence, 17 h; viability change, negative = cytotoxic: at 62 µM (top of the series) unless noted
# Summary of the method: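 Luminescence from CellTiter-Glo, added after the bla read and incubated 30 min at room temperature, gives viability of HEK293H PPARd-bla cells exposed to compounds for 17 h at 37 C with 300 nM L165041.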
# [21] = activation: at 92.4 µM (top of the series) unless noted
# Tags give direction and shape of the fitted curve or compound fluorescence and quenching.
compound,measurement,setting,value
Cc1cnc(C(=O)NCCc2ccc(S(=O)(=O)NC(=O)NC3CCCCC3)cc2)cn1,Potency,[1],inactive
same,Potency,[2],inactive
same,Potency,[3],"inconclusive: 13.3 µM [rising, full curve]"
same,Potency,[4],inactive
same,activation,[5]; [21],inconclusive: -23.9%
same,Potency,[6],"inconclusive: 12.3 µM [cytotoxic, single point]"
same,Potency,[7],"inconclusive: 12.3 µM [cytotoxic, single point]"
same,Potency,[8],inactive
same,Potency,[9],"inconclusive: 21.7 µM [activator, partial curve]"
CCCCCCCCCCCCCCCCO,Potency,[10],"inconclusive: 68.6 µM [cytotoxic, single point]"
same,"ratio activity, negative = inhibition",[11],inconclusive: -0.797%
same,Potency,[3],"inconclusive: 61.6 µM [cytotoxic, partial curve, poor fit] and inactive"
same,Potency,[12],inactive
same,activation,[5]; [21],inconclusive: 2.8%
same,activation,[5]; at 42.5 µM (top of the series),inactive: -1.27%
Oc1ccccc1-c1nnco1,"ratio activity, negative = inhibition",[11],inconclusive: 0.572%
CCS(=O)(=O)CCn1c([N+](=O)[O-])cnc1C,Potency,[10],inactive
same,"ratio activity, negative = inhibition",[11],inconclusive: -9.35%
C[N+](C)(C)CCCCCCCCCC[N+](C)(C)C,Potency,[3],inactive
same,Potency,[13],"inconclusive: 33.5 µM [rising, partial curve, poor fit]"
NC(=O)c1ccc(N)cc1,Potency,[14],"inconclusive: 54.8 µM [rising, single point]"
same,Potency,[12],inactive
same,Potency,[5]; [21],"inconclusive: 54.4 µM [activator, partial curve]"
COc1cc2c(cc1OC)C(=O)C(CC1CCN(Cc3ccccc3)CC1)C2 (centres undefined),"activity, negative = inhibition",[15],inconclusive: 46.5%
same,Potency,[14],inactive
same,"activity change, negative = inhibition",[16],inconclusive: 14%
same,Potency,[6],active: 21.3 µM
same,Potency,[17],"inconclusive: 33.5 µM [cytotoxic, partial curve, poor fit]"
same,Potency,[9],inactive
CN1C(=O)CC(c2ccccc2)C1=O (centres undefined),Potency,[12],inactive
CC(C)=CCC/C(C)=C/C#N,Potency,[10],"inconclusive: 71 µM [cytotoxic, single point]"
same,Potency,[1],inactive
same,Potency,[13],"inconclusive: 71 µM [rising, partial curve, poor fit]"
O=C(O)c1ccccc1C(=O)OCc1ccccc1,Potency,[14],"inconclusive: 0.871 µM [rising, full curve, poor fit]"
same,Potency,[16],"inconclusive: 30.6 µM [rising, partial curve]"
same,Potency,[1],inactive
same,Potency,[4],inactive
same,activation,[5]; [21],inconclusive: -7.38%
same,Potency,[9],"inconclusive: 61.1 µM [activator, partial curve, poor fit]"
O=C1C(c2[nH]c3ccccc3c2O)=Nc2ccccc21,Potency,[10],"inconclusive: 60.9 µM [cytotoxic, partial curve, poor fit]"
same,Potency,[11],inactive
same,Potency,[12],"inconclusive: 3.09 µM [inhibitor, full curve]"
same,Potency,[6],"inconclusive: 33.8 µM [rising, partial curve, poor fit]"
same,Potency,[18],"inconclusive: 30.5 µM [activator, partial curve, poor fit]"
same,activation,[18],inconclusive: 8.34% [at 42.5 µM]
CN1CCN(c2cc3c(nn2)Oc2ccccc2N3C)CC1,Potency,[1],inactive
same,Potency,[19],"inconclusive: 15 µM [activator, partial curve]"
same,Potency,[11],inactive
same,Potency,[4],"inconclusive: 0.262 µM [cytotoxic, partial curve, poor fit]"
same,Potency,[12],"inconclusive: 12 µM [inhibitor, partial curve]"
same,activation,[18],inactive: 7.81% [at 19 µM]
same,Potency,[9],"inconclusive: 5.17 µM [activator, partial curve]"
O=C(NCCc1c[nH]c2ccccc12)c1cccnc1,Potency,[19],active: 13.3 µM
same,Potency,[20],inactive
same,Potency,[12],"inconclusive: 30.9 µM [inhibitor, partial curve]"
Cc1cc2cc3c(C)cc(=O)oc3c(C)c2o1,"activity, negative = inhibition",[15],inconclusive: 18.7% [at 32.6 µM]
same,Potency,[14],inactive
same,Potency,[16],"inconclusive: 7.17 µM [rising, full curve]"
same,Potency,[1],inactive
same,Potency,[4],inactive
same,Potency,[12],"inconclusive: 4.36 µM [inhibitor, full curve]"
CC(C)OC(=O)COc1ccc(Cl)cc1Cl,Potency,[12],"inconclusive: 22.4 µM [inhibitor, full curve]"
same,activation,[5]; [21],inconclusive: -31% and inconclusive: -8.83%
CC12CCC(C1)C(C)(C)C2O (centres undefined),Potency,[14],inactive
same,Potency,[20],inactive
same,Potency,[5]; [21],inactive
same,Potency,[6],"inconclusive: 49 µM [cytotoxic, single point]"
same,Potency,[7],"inconclusive: 43.6 µM [cytotoxic, single point]"
same,Potency,[8],inactive
OC[C@H]1O[C@@H](O[C@H]2[C@H](O)[C@@H](O)[C@H](O)O[C@@H]2CO)[C@H](O)[C@@H](O)[C@H]1O,Potency,[10],inactive
same,Potency,[13],"inconclusive: 68.6 µM [rising, single point]"
c1ccc2c(c1)CCCC2C1=NCCN1 (centres undefined),Potency,[16],inactive
same,Potency,[6],inactive
CC(=O)CC(C)(C)O,activation,[5]; [21],inconclusive: 27.2%
COP(=O)(OC)OC(c1ccc(Cl)cc1)P(=O)(OC)OC (centres undefined),Potency,[16],inactive
same,Potency,[6],inactive
Nc1ncnc(Nc2ccccc2)n1,Potency,[10],inactive
same,Potency,[14],inactive
same,Potency,[16],inconclusive: 15 µM
same,Potency,[20],inactive
same,Potency,[18],inactive
same,Potency,[8],inactive
same,Potency,[17],inactive
same,Potency,[9],inactive
